From ChEMBL document CHEMBL4888484, “Replenishing the malaria drug discovery pipeline: Screening and hit evaluation of the MMV Hit Generation Library 1 (HGL1) against asexual blood stage Plasmodium falciparum ,using a nano luciferase reporter read-out” (2022)
Where “and” joins values, the source holds several entries; their conditions need not be identical. Identical values can stand only once. Out of some 150,000 compounds screened, about 540 (0.36%) showed an effect of 50% or more. Some of the results follow.

Tested on: Plasmodium falciparum
Experiment: Primary screen in NF54 nanoGlo assay, in single point, at 2uM, 72h; a lower Z score goes with more inhibition
Assay type: functional, Erythrocyte
Settings: timepoint 72 hour

Structure (SMILES)	% Inhibition [%]	Z score	% Inhibition (2 µM)	Z score (2 µM)
Clc1ccc([C@H]2CN(Cc3ccccn3)CCO2)cc1	1	-0.15	–	–
CCCC[C@H](C)C(=O)Nc1cc(-c2cnn(C)c2)nn1C	-14	1.74	–	–
Cc1nn(C)c(C)c1CC(=O)NCC1(NC(=O)OC(C)(C)C)CCCCCC1	-3	0.29	–	–
COc1ccc(CN2C(=O)[C@@H]3C[C@@H](CN3C3CCC3)Oc3ccccc32)cc1	15	-1.78	–	–
c1ccc(Cn2c(-c3ccccc3)nc3cccnc32)cc1	-12	1.59	–	–
O=C(C[C@H](c1cccc(C(F)(F)F)c1)c1cnc2ccc(Cl)cn12)NC(c1ccccc1)c1ccccc1	-10	1.34	–	–
O=C(Cc1cc2ccccc2s1)N1CCC(OCCO)CC1	15	-1.89	–	–
Cn1nc(C(=O)Nc2ccc3c(c2)OCCO3)ccc1=O	-5	0.7	–	–
Cn1c(C(=O)N2CCC[C@H]2c2ccc(Cl)cc2)cccc1=O	-8	1.05	–	–
O=C(c1cc(-c2ccco2)[nH]n1)N1C[C@@H]2CCS(=O)(=O)[C@@H]2C1	29	-3.24	–	–
CC(CNC(=O)C1CN2CC3CC2(CO1)C3)COCc1ccccc1 (centres undefined)	-9	0.93	–	–
O=C(NCC1(c2ccccc2)CC1)c1ocnc1C(F)(F)F	-8	1.43	–	–
CN(C)C(=O)c1cn[nH]c1-c1ccc(S(=O)(=O)Nc2ccc(OC(F)(F)F)cc2)o1	2	-0.22	–	–
Cc1ccc(-c2nsc(NC(=O)c3oc4ccccc4c3C)n2)o1	5	-0.49	–	–
COc1cccc(N2C[C@H](Cc3ccccc3)N(C(=O)C(C)(C)C)CC2=O)c1	10	-1.29	–	–
CCCc1nnc(NC(=O)CCOCC)s1	-4	0.75	–	–
CCc1nc(CNc2cccc(S(=O)(=O)N3CCCCC3)c2)n[nH]1	-2	0.21	–	–
CN(C)c1ccc(C(=O)N2CCN(c3ccc(F)cc3)CC2)cn1	-5	0.48	–	–
COC(=O)c1cc(C2CC2)nc2c1c(=O)n(Cc1cccc(C)c1)c(=O)n2-c1ccccc1OC	-3	0.36	–	–
COc1ccccc1-c1cc(C(=O)NCc2ccc(C)cc2)c2c(-c3ccccc3)[nH]nc2n1	4	-0.56	–	–
O=C(O)[C@@H]1CCCN1C(=O)[C@@H]1CCCN1C(=O)[C@H](Cc1ccccc1)n1c(=O)[nH]c2ccccc2c1=O	–	–	-11% and -5%	1.4 and 0.64
O=C(CCCC1CCOCC1)NCc1cccc(-c2ncc[nH]2)c1	5	-0.88	–	–
COCCN1C[C@]2(CCCN(C(=O)CN(C)c3ccccc3)C2)CCC1=O	-6	1.27	–	–
O=C(c1ccc(Cl)cn1)N1CCc2nocc2C1	-29	2.52	–	–
CN1CCN([C@H]2CCN(Cc3ccc4ccn(C)c4c3)C[C@H]2CCCO)CC1	-1	0.1	–	–
CCC(=O)NC[C@@H](CO)Cc1cc(Br)ccc1OC	17	-3.1	–	–

Structure (SMILES)	% Inhibition [%]	Z score	% Inhibition (2 µM)	Z score (2 µM)
N#CC1(C(=O)N2Cc3ccccc3C2)CCCC1	-15	1.72	–	–
Cc1ccc(Cl)c(S(=O)(=O)N[C@@H](C)c2nccs2)c1	-6	0.8	–	–
C[C@@H](c1cccnc1)N(C)CC(=O)N1CCNC1=O	1	-0.17	–	–
COc1ccc(S(=O)(=O)C2CN(C(C)=O)C2)cc1	-17	2.16	–	–
CC(C)CC(=O)N(Cc1c(-c2ccccc2F)noc1N1CCOCC1)C[C@H]1CCCO1	6	-0.69	–	–
O=C1CN(Cc2ccccc2O)C(=O)N1c1ccncc1	-1	0.06	–	–
CCCCc1ccc(-n2c(NS(=O)(=O)c3ccc(Cl)cc3)c(S(=O)(=O)c3ccc(C)cc3)c3nc4ccccc4nc32)cc1	4	-0.41	–	–
O=C(Cn1cnnn1)N1CCc2ccccc2C1	0	0.03	–	–
O=C1CCC2(CCN(C(=O)c3ncccc3O)CC2)CN1CCc1ccncc1	-6	0.73	–	–
Fc1cc(-c2cn(CCOc3ccccc3)nn2)cc(F)c1F	-13	2.59	–	–
CCn1cc(C(=O)NC[C@H]2CCN(Cc3sccc3C)C2)cn1	2	-0.35	–	–
Cc1nc(NC(=O)c2cc3ccccc3cc2OC(F)F)nn1C	-1	0.22	–	–
CCc1nnc(NC(=O)NC2CCOC(c3ccccc3)C2)s1 (centres undefined)	-9	1.21	–	–
Cc1noc(C)c1CCNC(=O)c1cc2n(n1)C[C@@](C)(C(=O)NCc1ccc(F)cc1)N(C)C2=O	-5	0.81	–	–
COc1ccc(NC(=O)[C@@H]2CC[C@H](NC(=O)Cc3ccncc3)C2)cn1	-4	0.81	–	–
O=C(Nc1ccccc1OC[C@H]1CCCO1)c1cc(=O)nc2sccn12	-11	1.47	–	–
COc1ccccc1OC[C@H](C)NC(=O)NC1(C)CCC1	-4	0.84	–	–
CN(Cc1cccnc1)[C@@H](C(=O)O)c1ccc(NC(=O)N2CCCC2)cc1	-2	0.3	–	–
O=C(O)C[C@H](NC(=O)CCc1ccccc1Cl)C1CC1	-6	0.86	–	–
CS(=O)(=O)CCOc1ccc(Cl)cc1N	11	-1.39	–	–
CNC(=O)[C@@H]1CN(C(=O)c2ccc(Cl)s2)C[C@H]1c1nc(COC)no1	-9	1.38	–	–
COc1ccc(-c2cc(-c3ccc(Cl)cc3)nc3c(C(=O)Nc4ccc(F)cc4)cnn23)cc1	-3	0.38	–	–
CC(C)(C)OC(=O)N1CC(CNCc2ccc(Cl)c(Cl)c2)C1	6	-0.58	–	–
Cc1ccc(N(C)C(C)C)c(C(=O)NC[C@H]2CCC3(CCOCC3)O2)c1	-1	0.19	–	–
CN(CC(=O)NC1CCCCCC1)Cc1cnn(C)c1	-8	1.15	–	–
CS(=O)(=O)CC1(CO[C@H]2CCCc3c[nH]nc32)CC1	-14	1.54	–	–
